Laboratory results reported in the supplement of paper PMC11417369.
± gives the standard deviation of the averaged measurements. Some of the results follow.

System: PfAP2-EXP AP2 domain (GST-tagged)
Test: gcPBM binding intensity (ln(normalized median fluorescence intensity)); higher = stronger DNA binding
Procedure, shortened: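 Binding intensity values are the highest Masliner-normalised natural-log median intensity among replicate spots of either probe orientation. The binding step lasted 1 h in 1× PBS with 1% milk, 0.2 mg/ml BSA, 0.5% salmon testes DNA and 0.03% Triton X-100, using GST-tagged P. falciparum DNA-binding domains expressed in E. coli on an Agilent 4 × 180k array of primer-extended double-stranded 36-bp intergenic genomic probes plus negative controls. Alexa488 anti-GST antibody and a 488 nm scan detected bound protein.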

| Sequence | gcPBM binding intensity (ln) |
| --- | --- |
| TAAATGTGAAATTTTATATTTTATATAATATACAAT [CACACA_negctrl_site76] | 8.07 ± 0.21 |
| AAGGATCACCCACAAACACACATATATATATATATA [CACACA_site559] | 10.4 ± 0.16 |
| CTCTTATACATATTCCTGCACTTATTTTTAAAAACA [GTGCAC_site9620] | 9.12 ± 0.3 |
| ATCATATTTTTATGTGTGCACTTTTTTTTTTTTTTT [GTGCAC_site9555] | 9.02 ± 0.099 |
| AGAGAGAAAGCTATAACATGCAACAATTTTTAGAAA [TGCATGCA_site95] | 8.69 ± 0.37 |
| TCAGAGTGAAGTTATACACACATGGTTTTTTTTTTT [CACACA_site2116] | 8.18 ± 0.66 |
| AGGAGGATATTACACAGTACCCAGTAACTCTACGGA [XGTACX_site1998] | 8.41 ± 0.37 |
| AAGTATGCGTTATATACACACATACATTTATATATC [CACACA_site6207] | 8.47 ± 0.35 |
| TTTTTTTGATAAAAGGTGCTACAAGATGAATACATA | 8.55 ± 0.26 |
| TTTTTTTTTTTAAATACATGCATGTCCTATTTAAAT [TGCATGCA_site494] | 9.14 ± 0.32 |
| ATAAATAAAAAAAAAAAAAAAAAAAAAAAAAAAATA [CACACA_negctrl_site1064] | 7.86 ± 0.61 |
| GTTGTATAAAATAATACATGCATGTCCTACATATAT [TGCATGCA_site162] | 9.43 ± 0.27 |
| GTAATATATTTTTATGGTACACGAACTAGCCAAAAA [XGTACX_site6307] | 8.76 ± 0.38 |
| AGTAATAACTATATATGTACATATATATATTATTAG [XGTACX_site1113] | 8.36 ± 0.3 |
| CCGCATTTTACAGACACACACAATTTATATTACGGT [CACACA_site6974] | 8.76 ± 0.5 |
| TAATATATTTATAAGTGTACACATTATATAAATCCC [XGTACX_site8875] | 8.85 ± 0.32 |
| AAAAGTATAATAAATTGTACTAACAAATATTTATGT [XGTACX_site7721] | 8.41 ± 0.31 |
| AAAAAAAAAAAAAAAAAAAAATATATATATATATAT [GTGCAC_negctrl_site426] | 10.1 ± 0.3 |
| AAAGATGAATTTTTTACACACACCATTTTATAATAT [CACACA_site3676] | 8.66 ± 0.33 |
| TAAAATTTTGTTTGTTGTACTTATTTTCGTGTCAAC [XGTACX_site8277] | 8.79 ± 0.38 |
| TACTTATCGTTAAATTGTACTAAAAAATATTTTTCT [XGTACX_site4665] | 8.53 ± 0.3 |
| AATGTAAAACCTCCTACACACACCAATTAACTATTC [CACACA_site2112] | 8.77 ± 0.57 |
| GCCATTGTACCATCCACACACATATATATCTGTATA [CACACA_site5490] | 9.19 ± 0.44 |

| Sequence | gcPBM binding intensity (ln) |
| --- | --- |
| AAAAAAGAAGAGCACACACACATATATAAATATAAA [CACACA_site631] | 8.69 ± 0.49 |
| TTATAATAAAAGGCTTTACAATTATTAAACAAATAA [GTGCAC_negctrl_site480] | 8.21 ± 0.47 |
| TGGTATTAAGGAGAGGGTACAAAAAAAAAAAAAAAA [XGTACX_site1668] | 8.28 ± 0.49 |
| AAATATAAACTCAGCACACAAACATATATATGTCAT [CACACA_site4004] | 8.73 ± 0.49 |
| TTCTAATATTTACATAATATATAGAAATATAAAGGT [XGTACX_negctrl_site504] | 8.73 ± 0.47 |
| GTAGACATTATAATGGTGCAAAAAAATTAACAAAAA [GTGCAC_site9891] | 9.23 ± 0.2 |
| TTTTTTTTTTTTTCTCGTACAAAATAATACCTTTTT [XGTACX_site3867] | 8.64 ± 0.42 |
| ATGGTATAAAAAAATACACACTTATATATATTCTTA [CACACA_site4427] | 8.22 ± 0.36 |
| AAAAAAAACGGACACACACACATACAAAATATATAT [CACACA_site4910] | 8.7 ± 0.38 |
| AGGGAATATTTTTATGCATGTGCTTACACATTACAA [TGCATGCA_site830] | 8.78 ± 0.37 |
| TGGATTTTGTATTAATGTACATATATATATATATAT [XGTACX_site4442] | 10.2 ± 0.51 |
| TATATTATTTATTAGACACACATTATTAATATATTT [CACACA_site1078] | 8.4 ± 0.35 |
| AACAACATTTTGTAATGTACATATTTACTTATATTC [XGTACX_site7251] | 8.46 ± 0.28 |
| CAGATAGACTTATATGCATGCATTCACATACCAACA [TGCATGCA_site163] | 9.76 ± 0.17 |
| TGAAAAGTAAAATACACACACATAATCTAATTTATA [CACACA_site7024] | 8.39 ± 0.53 |
| GGTTAACATAAATATATACACACCAATGATGGCATT [CACACA_site1568] | 8.41 ± 0.34 |
| CCTCTTAATATGTGCACACTAAATTATAACATAATT [CACACA_site3259] | 9.12 ± 0.16 |
| AAATAATTAGAAATAGTGCACATAATTAAGGGATAC | 9.53 ± 0.28 |
| TAGAAATATATAAATTGTACATGTTTGTATAATATA [XGTACX_site2097] | 8.42 ± 0.34 |
| TATATTATTTATTTTTGTACATATTATGAATGAATA [XGTACX_site3971] | 8.67 ± 0.44 |
| CTTCCTTCTAAATGCACACGGAAAGTATAAATGTAT [CACACA_site2501] | 8.79 ± 0.32 |
| TTACCTTTAAATGGATGTACAGAAATTTAAATTGTT [XGTACX_site7044] | 8.53 ± 0.4 |
